Like-named read-outs stand apart in the source and are kept apart here.
Tests used:
Test in all cases: whole plant or invertebrate
[1] = test system: Phytophthora on tomato plants; conditions: soil, read-out: inhibition of fungal infestation
Experimental: (§1) D-2: Action Against Phytophthora on Tomato Plants
After a cultivation period of 3 weeks, tomato plants are watered with a spray mixture (0.02% active ingredient based on the volume of the soil) prepared from a wettable powder formulation of the test compound. […] After 96 hours, the treated plants are infected with a sporangia suspension of the fungus. Fungus infestation is evaluated after incubation of the infected plants for 4 days at 90-100% relative humidity and +20° C.

[2] = test system: Phytophthora on tomato plants; conditions: read-out: inhibition of fungal infestation
Experimental: as §1
a) Residual-protective action
After a cultivation period of 3 weeks, tomato plants are sprayed with a spray mixture (0.02% active ingredient) prepared from a wettable powder formulation of the test compound. After 48 hours, the treated plants are infected with a sporangia suspension of the fungus. Fungus infestation is evaluated after incubation of the infected plants for 5 days at 90-100% relative humidity and +20° C.

[3] = test system: Phytophthora on potato plants; conditions: soil, read-out: inhibition of fungal infestation
Experimental: (§2) D-3: Action Against Phytophthora on Potato Plants
2-3 week old potato plants (Bintje variety) are watered with a spray mixture (0.02% active ingredient based on the volume of the soil) prepared from a wettable powder formulation of the test compound. […] After 48 hours, the treated plants are infected with a sporangia suspension of the fungus. Fungus infestation is evaluated after incubation of the infected plants for 4 days at 90-100% relative humidity and +20° C. Fungal infestation is effectively controlled with compounds of Table 1.

[4] = test system: Phytophthora on potato plants; conditions: read-out: inhibition of fungal infestation
Experimental: as §2
a) Residual-Protective Action
2-3 week old potato plants (Bintje variety) are sprayed with a spray mixture (0.02% active ingredient) prepared from a wettable powder formulation of the test compound. After 48 hours, the treated plants are infected with a sporangia suspension of the fungus. Fungus infestation is evaluated after incubation of the infected plants for 4 days at 90-100% relative humidity and +20° C.

SMILES | inhibition at 200 ppm [1] | inhibition at 200 ppm [2] | inhibition at 200 ppm [3] | inhibition at 200 ppm [4]
C#CCNC(=O)C(C)(COc1ccc(OCC)cc1)NS(=O)(=O)Cc1ccccc1 (stereo not drawn) [compound 087, 3-(4-Ethoxy-phenoxy)-2-methyl-2-phenylmethanesulfonylamino-N-prop-2-ynyl-propionamide] | 80 to 100% | 80 to 100% | 60 to 100% | 60 to 100%
CCOc1ccc(OCC(C)(NS(=O)(=O)Cc2ccccc2)C(=O)N(C)OC)cc1 (stereo not drawn) [compound 083, 3-(4-Ethoxy-phenoxy)-N-methoxy-2,N-dimethyl-2-phenylmethanesulfonylamino-propionamide] | 80 to 100% | 80 to 100% |  | 
CCOc1ccc(OCC(C)(NS(=O)(=O)Cc2ccccc2)C(=O)OC)cc1 (stereo not drawn) [compound 082, 3-(4-Ethoxy-phenoxy)-2-methyl-2-phenylmethanesulfonylamino-propionic Acid Methyl Ester] | 80 to 100% | 80 to 100% |  | 
CC(COc1ccc(-n2cncn2)cc1)(NS(=O)(=O)Cc1ccccc1)C(=O)O (stereo not drawn) [compound 100, 2-Methyl-2-phenylmethanesulfonylamino-3-(4-[1,2,4]triazol-1-yl-phenoxy)-propionic Acid] | 80 to 100% | 80 to 100% | 60 to 100% | 60 to 100%
